From the supplement of paper PMC7826260
The other results are listed elsewhere or left out. Viral Rep nickase domains cut single-stranded DNA in vitro (1 h at 37 °C, 3 µM enzyme); the outer parts of the 90-letter strands are left off. A value is the log2 ratio of uncut reads to the pool without enzyme; uncut sequences lie near 0, cut ones below; no hit call is given. Counts are relative to all reads; values above 0 arise when much of the pool is cut.

These sequences were tested on T1, Rep nickase domain of tomato golden mosaic virus (assay: uncleaved DNA left, log2 of reads against the no-enzyme library (log2 ratio); higher = less cleavage (more negative = more Rep cleavage of the k-mer); sequences stand for … in CTCGTCCG…ACCGGAGA).
T1 sequence (protein, residues 1-124, tag omitted): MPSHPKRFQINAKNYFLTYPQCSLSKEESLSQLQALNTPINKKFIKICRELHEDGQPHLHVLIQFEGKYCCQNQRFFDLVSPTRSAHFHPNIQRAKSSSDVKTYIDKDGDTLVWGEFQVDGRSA
Experimental: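 A pool of 90-nt single-stranded DNAs with seven random bases just before the constant AC of the nick site (name = the seven bases) was cut by 3 µM recombinant His6-SUMO-tagged Rep nickase domain (300 nM DNA, 50 mM HEPES pH 8.0, 50 mM NaCl, 1 mM MnCl2, 1 h, 37 °C, three replicates). Uncut DNA was amplified and sequenced.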
For ACACGAT, the “uncleaved DNA left (log2)” value was 0.0631.
For TAATCAG, the “uncleaved DNA left (log2)” value was 0.0852.
With GGACGAT the “uncleaved DNA left (log2)” value was -0.105.
For CATACGA, the “uncleaved DNA left (log2)” value was 0.0143.
In the case of CATGGAA, the “uncleaved DNA left (log2)” value is reported as 0.00185.
ATCGGCG was tested, and the “uncleaved DNA left (log2)” value was 0.0172.
For TTCAGGG, the “uncleaved DNA left (log2)” value was 0.127.
In the case of GGTGACA, the “uncleaved DNA left (log2)” value is reported as -0.113.
In the case of GAAACTT, the “uncleaved DNA left (log2)” value is reported as -0.2.
ATACCCA was tested, and the “uncleaved DNA left (log2)” value was 0.0976.
For GCGACAT, the “uncleaved DNA left (log2)” value was -0.0629.
For TAAGATG, the “uncleaved DNA left (log2)” value was 0.268.
With CATTGCA the “uncleaved DNA left (log2)” value was -0.0972.
With GTCCTAT the “uncleaved DNA left (log2)” value was 0.116.
In the case of GTACACA, the “uncleaved DNA left (log2)” value is reported as 0.056.
GTGCCCT was tested, and the “uncleaved DNA left (log2)” value was -0.0239.
For TGCCTCT, the “uncleaved DNA left (log2)” value was -0.0965.
In the case of AGTTTTC, the “uncleaved DNA left (log2)” value is reported as 0.102.
For ATCCAAT, the “uncleaved DNA left (log2)” value was -0.00514.
For CCCGGTC, the “uncleaved DNA left (log2)” value was 0.197.
With AGTATCC the “uncleaved DNA left (log2)” value was -0.00879.
GGCATTC was tested, and the “uncleaved DNA left (log2)” value was 0.0189.
In the case of TATCACA, the “uncleaved DNA left (log2)” value is reported as -0.0438.
CTGGGAG was tested, and the “uncleaved DNA left (log2)” value was 0.133.
TTACAGT was tested, and the “uncleaved DNA left (log2)” value was -0.167.
In the case of AGAAAGG, the “uncleaved DNA left (log2)” value is reported as 0.199.
For TGATATT, the “uncleaved DNA left (log2)” value was -0.848.
CCTCTAC was tested, and the “uncleaved DNA left (log2)” value was 0.0946.
With GTTCGGG the “uncleaved DNA left (log2)” value was -0.012.
In the case of CTTTGGC, the “uncleaved DNA left (log2)” value is reported as -0.23.
With TCATGGC the “uncleaved DNA left (log2)” value was 0.000502.
GGCATTA was tested, and the “uncleaved DNA left (log2)” value was -0.0773.
For AGTTAAG, the “uncleaved DNA left (log2)” value was 0.118.
For GCCTCAG, the “uncleaved DNA left (log2)” value was -0.0421.
For GAGACGT, the “uncleaved DNA left (log2)” value was 0.106.
In the case of TTGTGAC, the “uncleaved DNA left (log2)” value is reported as -0.0214.
For CTAGAAA, the “uncleaved DNA left (log2)” value was 0.188.
With GCCCGGA the “uncleaved DNA left (log2)” value was -0.0324.
With TAATCCT the “uncleaved DNA left (log2)” value was -4.54.
In the case of AGGATAC, the “uncleaved DNA left (log2)” value is reported as 0.15.
